Test results: the supplement of paper PMC4967469
The IC50 comes from the fitted curve, where viability falls to half of the control; a limit (>, <) means that the fit lies beyond the doses tested. AUC, from the same fit, is the share of area under the viability curve across the 256-fold dose range; it is 1 without any effect and falls as sensitivity rises. For some assays here: The top dose, if marked as inferred, was derived from the fitted curves, not read from the paper.

What was measured:
Assay in all cases: Viability of human cancer cell lines after 72 h of drug (GDSC screen)
QL-XI-92 = compound: C=CC(=O)Nc1cc(NC(=O)c2ccc(C)c(NC(=O)c3ccno3)c2)cc(C(F)(F)F)c1 [QL-XI-92]; details: top dose 10.24 µM; top dose inferred
Experimental: (§1)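 Human cancer cell lines in 384-well plates, medium with 10% serum, drug for 72 h over a 256-fold dose range (nine 2-fold or five 4-fold steps up to the top dose). Adherent lines were fixed and stained with the nucleic acid dye Syto60, suspension lines read with resazurin; signal relative to control wells, capped at 0 and 100%. One two-parameter sigmoid per drug and line, fitted in a mixed model over all curves with the slope shared within a line.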

Vinorelbine = compound: CCC1=C[C@@H]2CN(C1)Cc1c([nH]c3ccccc13)[C@@](C(=O)OC)(c1cc3c(cc1OC)N(C)[C@H]1[C@@](O)(C(=O)OC)[C@H](OC(C)=O)[C@]4(CC)C=CCN5CC[C@]31[C@@H]54)C2 [Vinorelbine]; details: top dose 0.064 µM; top dose inferred
Experimental: as §1

AG-014699 = compound: CNCc1ccc(-c2[nH]c3cc(F)cc4c3c2CCNC4=O)cc1 [AG-014699]; details: top dose 5 µM; top dose inferred
Experimental: as §1

XL-184 = compound: COc1cc2nccc(Oc3ccc(NC(=O)C4(C(=O)Nc5ccc(F)cc5)CC4)cc3)c2cc1OC [XL-184]; details: top dose 5.12 µM; top dose inferred
Experimental: as §1

WHI-P97 = compound: COc1cc2ncnc(Nc3cc(Br)c(O)c(Br)c3)c2cc1OC [WHI-P97]; details: top dose 10.24 µM; top dose inferred
Experimental: as §1

Gefitinib = compound: COc1cc2ncnc(Nc3ccc(F)c(Cl)c3)c2cc1OCCCN1CCOCC1 [Gefitinib]; details: top dose 0.5 µM
Experimental: as §1

Phenformin = compound: N=C(N)NC(=N)NCCc1ccccc1 [Phenformin]; details: top dose 4000 µM; top dose inferred
Experimental: as §1

S-Trityl-L-cysteine = compound: N[C@@H](CSC(c1ccccc1)(c1ccccc1)c1ccccc1)C(=O)O [S-Trityl-L-cysteine]; details: top dose 5.12 µM; top dose inferred
Experimental: as §1

EHT 1864 = compound: O=c1cc(CN2CCOCC2)occ1OCCCCCSc1ccnc2cc(C(F)(F)F)ccc12 [EHT 1864]; details: top dose 10 µM; top dose inferred
Experimental: as §1

NU-7441 = compound: O=c1cc(N2CCOCC2)oc2c(-c3cccc4c3sc3ccccc34)cccc12 [NU-7441]; details: top dose 2 µM; top dose inferred
Experimental: as §1

Cell Line | AUC (QL-XI-92) | IC50 (QL-XI-92) [µM] | AUC (Vinorelbine) | IC50 (Vinorelbine) [nM] | AUC (AG-014699) | IC50 (AG-014699) [µM] | AUC (XL-184) | IC50 (XL-184) [µM] | AUC (WHI-P97) | IC50 (WHI-P97) [µM] | AUC (Gefitinib) | IC50 (Gefitinib) [nM] | AUC (Phenformin) | IC50 (Phenformin) [mM] | AUC (S-Trityl-L-cysteine) | IC50 (S-Trityl-L-cysteine) [nM] | AUC (EHT 1864) | IC50 (EHT 1864) [µM] | AUC (NU-7441) | IC50 (NU-7441) [nM]
SCH (stomach, adherent) | 0.984 | > 10.2 | 0.98 | > 64 | 0.941 | > 5 | 0.988 | > 5.12 | 0.988 | > 10.2 | 0.988 | > 500 | 0.917 | > 4 | 0.814 | 3060 | 0.959 | > 10 | 0.98 | > 2000
SF126 (glioma, adherent) | 0.911 | > 10.2 | 0.941 | > 64 | 0.964 | > 5 | 0.975 | > 5.12 | 0.968 | > 10.2 | 0.981 | > 500 | 0.835 | 2.84 | 0.743 | 1660 | 0.95 | > 10 | 0.973 | > 2000
SH-4 (melanoma, adherent) | 0.959 | > 10.2 | 0.672 | 15.9 | 0.974 | > 5 | 0.872 | > 5.12 | 0.909 | > 10.2 | 0.955 | > 500 | 0.54 | 0.342 | 0.749 | 2550 | 0.953 | > 10 | 0.967 | > 2000
SHP-77 (small cell lung carcinoma, semi-adherent) | 0.985 | > 10.2 | 0.973 | > 64 | 0.985 | > 5 | 0.975 | > 5.12 | 0.983 | > 10.2 | 0.963 | > 500 | 0.737 | 1.08 | 0.73 | 1330 | 0.945 | > 10 | 0.992 | > 2000
SIMA (neuroblastoma, adherent) | 0.964 | > 10.2 | 0.916 | > 64 | 0.958 | > 5 | 0.933 | > 5.12 | 0.962 | > 10.2 | 0.985 | > 500 | 0.98 | > 4 | 0.942 | > 5120 | 0.985 | > 10 | 0.98 | > 2000
SJSA-1 (bone, adherent) | 0.948 | > 10.2 | 0.711 | 17.2 | 0.959 | > 5 | 0.969 | > 5.12 | 0.982 | > 10.2 | 0.984 | > 500 | 0.761 | 1.59 | 0.636 | 801 | 0.971 | > 10 | 0.94 | > 2000
SK-MEL-1 (melanoma, suspension) | 0.992 | > 10.2 | 0.985 | > 64 | 0.976 | > 5 | 0.993 | > 5.12 | 0.982 | > 10.2 | 0.993 | > 500 | 0.855 | 2.53 | 0.991 | > 5120 | 0.976 | > 10 | 0.993 | > 2000
